Source: PubChem BioAssay AID1347428 (National Center for Advancing Translational Sciences (NCATS), 2020)
About 290 (0.32%) of roughly 91,000 compounds were called active. The inconclusive results got no clear call from the source; some entries with a clear call stand among them for comparison. Calls follow the shape of the dose curve; as a rule, active = well fitted inhibition curve with a large enough effect; inconclusive = small, poorly fitted or top-dose-only effect; inactive = no such curve, though single readings can be large or run the other way. Where the call is inconclusive, the potency comes from a doubtful curve fit.

target: Single-stranded DNA cytosine deaminase (Homo sapiens) (UniProt Q9GZX7); assay: Primary qHTS assay for inhibitors of Activation Induced Cytidine Deaminase (AID): AID signal; details: AID deamination FRET fluorescence, UDG-coupled, 4 h; activity change, negative = inhibition: at 115 µM (top of the series); also: nearly all actives have a fitted effect of over 25% in size
% is scaled to controls: 0 for no effect and ±100 for the full control effect; potency is read from the fitted curve at half-maximal effect; tags tell the direction and shape of the fitted curve.

UniProt Q9GZX7, sequence (Q9GZX7 whole entry, looked up): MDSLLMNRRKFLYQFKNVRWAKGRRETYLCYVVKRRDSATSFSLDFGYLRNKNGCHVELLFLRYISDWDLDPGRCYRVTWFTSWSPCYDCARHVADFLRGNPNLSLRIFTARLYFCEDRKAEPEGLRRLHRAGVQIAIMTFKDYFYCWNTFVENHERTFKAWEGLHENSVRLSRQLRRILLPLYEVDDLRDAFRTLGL

**Q.** How did the Potency turn out when `Cc1ccc(Cl)cc1NC(=O)CSCc1cnn(-c2ccccc2)c1-n1cccc1` was run?
**A.** The Potency was inconclusive: 10 µM [inhibitor, full curve, poor fit].

**Q.** With `CCc1ccc(N(CC)C(=O)c2sc3nc4n(c(=O)c3c2C)CCCC4)cc1` as the compound, how does the Potency read?
**A.** Its Potency is inconclusive: 50.1 µM [inhibitor, partial curve, poor fit].

**Q.** Which Potency does the source give for `CN(CCCNC(=O)c1cc2c(=O)n(C)c3ccccc3c2s1)Cc1ccccc1` here?
**A.** Its Potency is inconclusive: 89.1 µM [inhibitor, single point].

**Q.** For `CCN1C(=O)c2ccccc2Sc2ccc(NC(=O)c3cccc(C)c3)cc21`, which Potency is on record?
**A.** Its Potency is inconclusive: 39.8 µM [inhibitor, single point].

**Q.** `O=c1cc2nc(-c3ccccc3)nc(SCCOc3ccc(Cl)cc3)n2[nH]1` was tested. Which Potency did it give?
**A.** The Potency was inconclusive: 56.2 µM [inhibitor, partial curve, poor fit].

**Q.** `COc1cc(OC)c(N(C)C(=O)CSc2c3c(nc4ccc(Cl)cc24)CCCC3)cc1Cl` was tested. Which Potency did it give?
**A.** The Potency was inconclusive: 15.8 µM [inhibitor, partial curve, poor fit].

**Q.** For `CC(NC(=O)CSc1nnc(COc2ccc(Cl)cc2)n1C)c1cccc2ccccc12` (stereo unspecified), which Potency is on record?
**A.** Its Potency is inconclusive: 8.91 µM [inhibitor, partial curve, poor fit].

**Q.** `COc1ccccc1/C=N\O` was tested. Which Potency did it give?
**A.** Its Potency is “inactive”.

**Q.** Which Potency does the source give for `COc1cccc(-c2nc(SCC(=O)NCC3CCCO3)c(-c3ccc(Cl)cc3)[nH]2)c1` (stereo unspecified) here?
**A.** Its Potency is inconclusive: 3.55 µM [inhibitor, full curve, poor fit].

**Q.** For `O/N=C\c1ccc(OCc2ccccc2Cl)cc1`, which Potency is on record?
**A.** Its Potency is “inactive”.

**Q.** How did the Potency turn out when `COc1ccc(CCNC(=O)CCn2c(=O)c3ccccc3n(CC(=O)Nc3cc(Cl)ccc3C)c2=O)cc1OC` was run?
**A.** Its Potency is inconclusive: 3.55 µM [inhibitor, full curve, poor fit].

**Q.** For `c1cnc2c(c1)ccc1cccnc12`, which Potency is on record?
**A.** The Potency was inconclusive: 50.1 µM [inhibitor, partial curve, poor fit].

**Q.** Which Potency does the source give for `CCn1cc2nc(SCc3cccc(C)c3)n(CCc3ccccc3)c(=O)c2n1` here?
**A.** The Potency was active: 35.5 µM.

**Q.** For `Cc1nc2nc(SCC(=O)NC3CCC(C)CC3)nn2c(C)c1Cc1ccccc1Cl` (stereo unspecified), which Potency is on record?
**A.** Its Potency is inconclusive: 50.1 µM [inhibitor, partial curve, poor fit].

**Q.** For `Cc1ccc(S(=O)(=O)C(CNC(=O)c2ccc(C(F)(F)F)cc2)c2ccco2)cc1` (stereo unspecified), which Potency is on record?
**A.** Its Potency is inconclusive: 22.4 µM [inhibitor, partial curve, poor fit].

**Q.** Which Potency does the source give for `COc1ccc(NC(=O)c2oc3ccccc3c2NC(=O)C23CC4CC(CC(C4)C2)C3)cc1` here?
**A.** The Potency was inconclusive: 56.2 µM [inhibitor, partial curve, poor fit].

**Q.** With `CCCCn1nnnc1CSc1nnc(-c2ccccc2)n1-c1ccccc1` as the compound, how does the Potency read?
**A.** The Potency was “inactive”.

**Q.** For `O=C(Nc1ccc(F)cc1)c1ccc2c(c1)NC(=O)c1ccccc1S2`, which Potency is on record?
**A.** Its Potency is “inactive”.

**Q.** For `COc1ccccc1N(CC(=O)Nc1cc(C)cc(C)c1)S(C)(=O)=O`, which Potency is on record?
**A.** The Potency was “inactive”.

**Q.** How did the Potency turn out when `Cc1ccc(CSc2cn(CCNC(=O)c3cccs3)c3ccccc23)cc1` was run?
**A.** The Potency was inconclusive: 89.1 µM [inhibitor, partial curve, poor fit].

**Q.** With `CC(C)Sc1nc2sc3c(c2c(=O)n1-c1ccccc1)CCCC3` as the compound, how does the Potency read?
**A.** The Potency was inconclusive: 3.16 µM [inhibitor, full curve, poor fit].

**Q.** `COc1cccc(C(=O)NN2CC(O)=C(c3nc(-c4ccc(Br)cc4)cs3)C2=N)c1` was tested. Which Potency did it give?
**A.** Its Potency is “inactive”.

**Q.** `O=C(Nc1ccccc1)C1=C(Nc2ccc(F)cc2F)c2ccccc2S1(=O)=O` was tested. Which Potency did it give?
**A.** The Potency was inconclusive: 79.4 µM [inhibitor, partial curve, poor fit].

**Q.** With `COc1ccc(Nc2ncc(C(=O)N3CCN(c4ccccc4OC)CC3)c3ccccc23)cc1` as the compound, how does the Potency read?
**A.** The Potency was inconclusive: 50.1 µM [inhibitor, partial curve, poor fit].

**Q.** `CCc1cccc(-n2nnc(S(=O)(=O)c3ccc(OC)cc3)c2C)c1` was tested. Which Potency did it give?
**A.** Its Potency is inconclusive: 28.2 µM [inhibitor, partial curve, poor fit].

**Q.** For `Cc1coc2c(C)c3oc(=O)c(CCC(=O)N4CCCCC4)c(C)c3cc12`, which Potency is on record?
**A.** The Potency was inconclusive: 89.1 µM [inhibitor, single point].

**Q.** `O=C(Cn1ccc2cc(S(=O)(=O)N3CCCCCC3)ccc21)NCc1cccc(Cl)c1` was tested. Which Potency did it give?
**A.** The Potency was inconclusive: 3.55 µM [inhibitor, full curve, poor fit].

**Q.** For `CCCNc1ncnc2c1c(-c1ccccc1)cn2-c1ccccc1`, which Potency is on record?
**A.** Its Potency is inconclusive: 50.1 µM [inhibitor, partial curve, poor fit].

**Q.** How did the Potency turn out when `COc1ccc(C(=O)COC(=O)Cc2coc3cc4c(cc23)CCC4)cc1OC` was run?
**A.** The Potency was inconclusive: 39.8 µM [inhibitor, single point].

**Q.** `Cc1ccc(-n2nc(C)c(C(=O)NCCCN3CCN(c4cccc(Cl)c4)CC3)c2-n2cccc2)cc1` was tested. Which Potency did it give?
**A.** Its Potency is inconclusive: 17.8 µM [inhibitor, full curve, poor fit].

**Q.** With `COc1ccc(C(=O)NCc2nc(-c3cccc(C)c3)no2)cc1OC` as the compound, how does the Potency read?
**A.** Its Potency is inconclusive: 100 µM [inhibitor, single point].

**Q.** With `Cc1ccccc1NC(=O)C(Cc1ccccc1)N1Cc2ccccc2C1=O` (stereo unspecified) as the compound, how does the activity change, negative = inhibition read?
**A.** The activity change, negative = inhibition was inconclusive: -33.9% [inhibitor].

**Q.** For `Cc1cc(OCC(=O)N(Cc2ccc(N(C)C)cc2)Cc2ccco2)cc(C)c1Cl`, which Potency is on record?
**A.** Its Potency is inconclusive: 15.8 µM [inhibitor, full curve, poor fit].

**Q.** With `Cc1ccc(-c2nc3cc(NC(=O)Cc4ccc(Cl)cc4)ccc3o2)cc1` as the compound, how does the Potency read?
**A.** Its Potency is inconclusive: 28.2 µM [inhibitor, single point].

**Q.** For `Cc1ccc(N(CC(O)Cn2c3ccccc3c3ccccc32)S(=O)(=O)c2ccc(F)cc2)cc1` (stereo unspecified), which Potency is on record?
**A.** The Potency was inconclusive: 35.5 µM [inhibitor, full curve, poor fit].

**Q.** `Cn1cc(S(=O)(=O)N2CCCCCC2)cc1C(=O)N1CCN(c2ccccc2F)CC1` was tested. Which Potency did it give?
**A.** The Potency was inconclusive: 3.55 µM [inhibitor, full curve, poor fit].

**Q.** How did the Potency turn out when `CCC(NC(C)C)C(O)c1ccc(O)c(O)c1` (stereo unspecified) was run?
**A.** The Potency was active: 44.7 µM.

**Q.** How did the Potency turn out when `COc1ccc(CCNc2ncnc3onc(-c4ccc(Cl)cc4)c23)c(OC)c1` was run?
**A.** Its Potency is inconclusive: 17.8 µM [inhibitor, partial curve, poor fit].

**Q.** How did the Potency turn out when `CCC(=O)Nc1ccc(Cl)c(NC(=O)c2ccc3c(c2)OCO3)c1` was run?
**A.** The Potency was “inactive”.

**Q.** For `Cn1cc(C(=O)O)c(=O)c2cc(S(=O)(=O)N3CCOCC3)ccc21`, which Potency is on record?
**A.** The Potency was inconclusive: 15.8 µM [inhibitor, full curve, poor fit].

**Q.** For `CN(C)c1ccc(C=Nc2ccc(Nc3ccccc3)cc2)cc1`, which Potency is on record?
**A.** The Potency was inconclusive: 79.4 µM [inhibitor, partial curve, poor fit].

**Q.** How did the Potency turn out when `COc1ccc(Cl)cc1NC(=O)N1CC(C)Oc2ccc(C)cc21` (stereo unspecified) was run?
**A.** The Potency was “inactive”.

**Q.** Which Potency does the source give for `COc1ccccc1-c1nnc(C2CCN(S(=O)(=O)c3ccc(CC(C)C)cc3)CC2)o1` here?
**A.** Its Potency is inconclusive: 20 µM [inhibitor, full curve, poor fit].

**Q.** For `COc1ccc(CNC(=O)Nc2ccc3c(c2)N(C)C(=O)c2ccccc2S3)cc1OC`, which Potency is on record?
**A.** Its Potency is active: 89.1 µM.

**Q.** With `Cc1cccc(NC(=O)COc2ccc(-c3nn(C)c(=O)c4ccccc34)cc2)c1` as the compound, how does the Potency read?
**A.** The Potency was inconclusive: 70.8 µM [inhibitor, single point].

**Q.** Which Potency does the source give for `Cc1cc(S(=O)(=O)NCC(c2ccco2)S(=O)(=O)c2cccs2)ccc1F` (stereo unspecified) here?
**A.** The Potency was inconclusive: 15.8 µM [inhibitor, full curve, poor fit].

**Q.** How did the Potency turn out when `CCOc1ccc(C2c3[nH]c4ccccc4c3CCN2C(=O)CSCc2ccc(F)cc2)cc1` (stereo unspecified) was run?
**A.** Its Potency is inconclusive: 3.16 µM [inhibitor, full curve, poor fit].

**Q.** For `Cc1ccc(CNC(=O)c2c[nH]n3c(=O)c(Cc4ccc(Cl)cc4)c(C)nc23)cc1`, which Potency is on record?
**A.** Its Potency is inconclusive: 56.2 µM [inhibitor, partial curve, poor fit].

**Q.** Which Potency does the source give for `Cc1ccc(S(=O)(=O)c2nnn3c2nc(NCCc2ccccc2)c2sccc23)cc1` here?
**A.** Its Potency is inconclusive: 10 µM [inhibitor, full curve, poor fit].

**Q.** `COc1ccc(C2=C(N3CCN(c4cccc(C)c4)C(C)C3)c3ccccc3C2=O)cc1` (stereo unspecified) was tested. Which Potency did it give?
**A.** Its Potency is inconclusive: 39.8 µM [inhibitor, partial curve, poor fit].

**Q.** `COc1ccc(CNCCC(c2ccc3c(c2)OCO3)c2ccccc2OC)cc1` (stereo unspecified) was tested. Which Potency did it give?
**A.** Its Potency is active: 50.1 µM.

**Q.** With `COc1ccc(Cn2cc(C(=O)c3ccc(C)c(C)c3)c(=O)c3ccccc32)cc1` as the compound, how does the Potency read?
**A.** Its Potency is inconclusive: 20 µM [inhibitor, full curve, poor fit].

**Q.** For `Cc1[nH]c2ccccc2c1C(=O)C(C)OC(=O)c1cccc(F)c1` (stereo unspecified), which Potency is on record?
**A.** The Potency was “inactive”.

**Q.** `CC(=O)c1cccc(NC(=O)CC(c2ccc(C)cc2)N2Cc3ccccc3C2=O)c1` (stereo unspecified) was tested. Which Potency did it give?
**A.** The Potency was inconclusive: 56.2 µM [inhibitor, partial curve, poor fit].

**Q.** `Cc1oc(-c2ccccc2Cl)nc1Cn1c(SCc2cccc(F)c2)nc2cccnc21` was tested. Which Potency did it give?
**A.** Its Potency is inconclusive: 8.91 µM [inhibitor, full curve, poor fit].

**Q.** With `COC(=O)c1ccc(COc2ccc(/C=C(/CC(=O)O)c3nc4ccccc4s3)cc2)cc1` as the compound, how does the Potency read?
**A.** Its Potency is “inactive”.

**Q.** How did the Potency turn out when `CCN(CC)S(=O)(=O)c1ccc(C)c(NC(=S)N(c2ccccc2)C(C)C)c1` was run?
**A.** The Potency was “inactive”.

**Q.** How did the Potency turn out when `CCn1c(=N)n(CCOc2ccc(Br)cc2)c2ccccc21` was run?
**A.** Its Potency is inconclusive: 3.55 µM [inhibitor, partial curve, poor fit].

**Q.** `O=C(COCc1cc(-c2cccs2)on1)N1CCN(c2cccc(Cl)c2)CC1` was tested. Which Potency did it give?
**A.** Its Potency is inconclusive: 39.8 µM [inhibitor, single point].

**Q.** Which Potency does the source give for `COc1ccccc1Nc1cc(C(=O)NC2CCC(C)CC2)c2ccccc2n1` (stereo unspecified) here?
**A.** Its Potency is inconclusive: 35.5 µM [inhibitor, full curve, poor fit].

**Q.** With `O=C(Nc1cccc(Cl)c1)c1ccc2c(c1)CCN2S(=O)(=O)c1ccccc1` as the compound, how does the Potency read?
**A.** The Potency was inconclusive: 11.2 µM [inhibitor, full curve, poor fit].
